Results from the RNAGym collection of RNA variant scans (doi:10.1093/nar/gkz1192).
The source gives no read counts; variants with many changes may rest on few reads.

B1: CPEB3 Ribozyme (parent)
chain: UAACAGGGGGCCACAGCAGAAGCGUUCACGUCGCAGCCCCUGUCAGAUUCUGGUGAAUCUGCGAAUUCUGCUGUAUAUCUC

Variants of: B1
Experiment: self-cleavage, relative activity (ratio to wild type); higher = more cleavage; in vitro, sequencing
Outline: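 Libraries of CPEB3 self-cleaving ribozyme mutants came from rounds of error-prone PCR and carried barcodes, which DNA sequencing matched to variants. In vitro transcription used T7 RNA polymerase at 37°C for 5 hours, with a further 15 min in DNase I before EDTA stopped the reaction; the ribozymes cleaved during both steps. The RNA was reverse transcribed with template switching and sequenced on Illumina. Relative activity is the cleaved/total read fraction of a variant divided by that of the unmutated ribozyme, averaged over three batches with at least 5 reads.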

Variant	self-cleavage
A13G U66C A75G A77G	0.11
A13U A20U A28U	0.28
A13U A15G G24C U26A G33U U67C U76A	0.05
A13U A21G A56G	0.26
A13U A18G A45G A65G	0.31
A13U A18G U25C U31C U49C U66A	0
A13G U41C U51C U54C U78C	0.61
A13U A15U A35G U72C	0.99
A13U A18U U26A U80C	0.33
A13G U48C U49G	0.07
A13U A18C A35G G52A U78A	0.88
A13G U41C U72C	0.84
A13G U43C U48A A56G A57G	0.23
A13U A20C G22U U43C	0.06
A13G U26C U69A	0.23
A13G U26C U69C	0.06
A13G U43C U67C	0.09
A13U A15G A35U U51A A56G U74C	0.74
A13G U31A U60A U72A U78A	0.11
A13G U43G U54A	0.34
A13G U43A G46C A57G	0.24
A13U A20U U41C U48A U72C U74C	0.15
A13U A18G A20U G36C C38U A65G	0.19
A13U A20G U25C G61C A75U U80A	0.25

Variant	self-cleavage
A13U A20G U43A U49C G52A C79U	0.67
A13U A15U C17U G24A	0.29
A13U A15U A21G U51A A57G	0.2
A13G U41A A57G G63A U69C U72C U78C	0.07
A13U A20G A21G U26C A77G	0.08
A13U A15G U41C U51C U54C U78C	0.38
A13G U31C U41A U69C	0.16
A13G U48C U51C A64U	0.18
A13U A20G G52A U58C	0.73
A13U A20G U26C A57G U80C	0.36
A13G U48A U67A	0.23
A13G U41A A57G U69C	0.11
A13G U26C U48C U72C	0.14
A13G U43C U78A	0.85
A13U A20G G42A	0.08
A13U A18G A21G U25A A45U U72C	0.06
A13U A20G A57G	0.46
A13U A18U U54A	0.43
A13G U31C U54C	0.71
A13G U41A U66G U78C	0.06
A13U A15U A28G A35G U43C A56G	0.51
A13U A18G A35G U58A U72C	0.16
A13U A20G C27A A45U U66A U76C	0.06
A13U A20U C32U U58C U60C U67C	0.06

Variant	self-cleavage
A13U A15C A28G C37A	0.17
A13G U26C U31C U80A	0.09
A13U A18U C37U U41C U67G	0.13
A13G U26C C38U A45C A57G U80C	0.06
A13G U51A U67C	0.23
A13U A18U U72C U76C A77G	0.3
A13G U26C U72C	0.45
A13G U26C U54C U74A	0.7
A13G U26C G36U G52A	0.14
A13U A18G A20U A45C U72A	0.08
A13G U51C A65G	0.35
A13G U41C A64G U67C U78C	0.06
A13G U31A C38U U49C	0.07
A13U A15U A47G	0.4
A13U A20U A21G G30U U43C	0.05
A13G U31C A65U U66A	0.15
A13U A20U U49A G73U U80A	0.54
A13U A20G C27A U48C	0.08
A13G U31A U76A	0.71
A13U A15U C37A A64U U67A U72C	0.08
A13G U41A A57G	0.25
A13G U60G U69C	0.17
A13U A15G A20U G24C C38U	0.25
A13U A15G A20G A35U	0.14

Variant	self-cleavage
A13U A15U A18G C27U C32U U41C U43A	0.23
A13G U49A U74C U80C	0.24
A13G U43A A45G A47U A64G	0.11
A13G U66C U69C	0.22
A13G U60C U80A	0.47
A13G U51G G53A U72C	1
A13G U41C U49C U60C A77G	0
A13G U26G U48C U51A	0.31
A13U A18G U74G A75U	1.23
A13G U51G A65G	0.62
A13G U54C U72A C79U	0.89
A13G U41A U51A A57G U60A	0.04
A13G U43C U60C	0.79
A13G U69A U74G U78C	0.41
A13U A15G U80A	0.66
A13G U31A A65U	0.34
A13G U43A U67A	0.33
A13G U69A U72A	0.21
A13G U43C A56G A64G U76C	0.09
A13U A15U A56G A64U U78C U80A	0.12
A13U A21G A35U	0.12
A13U A21G A35G	0.97
A13G U31C A65G	0.2
A13U A18U A20C A75U	0.4

Variant	self-cleavage
A13U A21G A45G A64G A65G	0.06
A13U A15U U60A	0.18
A13U A15G G36U	0.09
A13G U26C C62U A64U	0.24
A13G U49A U78C	0.51
A13G U54C U66C C68U U69C	0.08
A13U A20U G42C C44G U72A G73A U80C	0.13
A13G U72C U76C U80A	1.19
A13U A20U U41C U69C	0.13
A13G U41A U76C	0.07
A13G U26C U58C A77U	0.09
A13U A15G U25C U43C C71G	0.06
A13U A18G U41A G52A A56G U60C U80G	0.35
A13G U49C U60C U69C	0.08
A13G U43G A45G A57G	0
A13U A15G A28C G55A	0.24
A13G U54C U67C G70A	0.11
A13G U26C A45U U66A U69A	0.14
A13G U26C U41C U48C A56U U72C	0.27
A13U A18U U25G A64G U72C U76C	0.21
A13G U41C G52C	1.01
A13G U49C U67C U69A	0.15
A13G U31C U41A U43C	0.2
A13G U69C U74A	0.32

Variant	self-cleavage
A13U A15G A21G A47G U72A	0.07
A13G U26G C40U A57G U80C	0.27
A13U A18U C23U A45C U48C G70U U78C	0.02
A13U A15G A28U A56G A65U U69A U78A	0.08
A13G U26C U67A C81U	0.12
A13G U49A U60C U69C U76G	0.14
A13U A15G U41C	0.8
A13U A20G A45G A47G	0.45
A13G U51A U72A	0.57
A13U A20U U67A U78C	1.06
A13U A18G U54A	0.94
A13G U26C U60C A64G U72C	0.09
A13U A21G A28U U51G U66C U80A	0.86
A13G U67A G73A	0.82
A13G U67A G73U	0.54
A13U A20G C38U A45G U49C A77U	0.08
A13U A20G A56U A57G G70C	0.07
A13U A18G C23U U43A U54A	0.18
A13U A18U A21C A45U U67A U72G A75U	0.07
A13G U67C U69A	0.24
A13U A18U C27G G33A U48C	0.04
A13U A15G A35G U51A	1.05
A13G U31A U58C U72C	0.23
A13G U58C U60C U69C U76A	0.08

Variant	self-cleavage
A13G U41G A45G U54C U72C	0.05
A13U A18G U26C A35U C68U	0.09
A13G U31C A35U U43C U58A	0.09
A13U A15G A47G	0.61
A13G U26C U31C	0.25
A13G U26G C40U	0.08
A13U A18U U49C U72G U76C U80A	0.26
A13U A21G A56G U72C	0.13
A13U A20G A21U A64G	0.2
A13G U43C U60C U78C	0.12
A13U A18U A20G A56C A57G U74C A75G	0.06
A13U A20G C38U	0.27
A13G U26C A35G A75U	0.57
A13U A20G U43C C59U U67C	0.15
A13G U31C C38U U67A A77G	0.13
A13G U41C G63U A65U	0.11
A13G U51C U58C U67C	0.17
A13U A18G G46A U76A	0.18
A13U A18U A28U U31A	0.09
A13U A20G A45G U54C	0.37
A13G U26C A47G U51C A57G U60C	0.32
A13G U31A U49C A65G U80A	0.09
A13U A18U U26A	0.19
